This is a selection; strong and weak results do not stand in their true shares. For some of these results: At the low end of the ranking the order means little. The list shows a part of the results. For some of these results: The source does not settle which construct or isoform was used.

Assay in all cases: universal protein binding microarray (PBM)
Holding throughout (settings): transcription factors of Arabidopsis thaliana; high values mean tight binding; most listed sequences are background and not binding sites; double strand, one strand shown

For one test, the target named is T1, GST-ANAC092(1-176) (UniProt Q9FKA0).
T1 sequence: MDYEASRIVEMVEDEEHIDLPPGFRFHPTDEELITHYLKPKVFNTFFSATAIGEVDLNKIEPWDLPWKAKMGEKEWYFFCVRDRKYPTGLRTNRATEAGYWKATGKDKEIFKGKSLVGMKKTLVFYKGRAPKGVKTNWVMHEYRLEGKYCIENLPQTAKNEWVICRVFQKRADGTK

The next test has as its target GST-NTL6(1-168) (UniProt Q9SCK6).
For test [1], the target named is T2, GST-ANAC092(1-285) full length (UniProt Q9FKA0).
T2 sequence: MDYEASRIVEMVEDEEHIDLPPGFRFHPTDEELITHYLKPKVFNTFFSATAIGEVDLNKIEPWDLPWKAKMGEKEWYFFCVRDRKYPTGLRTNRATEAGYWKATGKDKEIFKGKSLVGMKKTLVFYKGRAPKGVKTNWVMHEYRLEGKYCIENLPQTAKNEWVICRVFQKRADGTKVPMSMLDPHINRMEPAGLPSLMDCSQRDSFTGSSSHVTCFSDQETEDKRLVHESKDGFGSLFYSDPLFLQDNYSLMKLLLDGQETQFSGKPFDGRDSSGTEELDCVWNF

A further test deals with T3, GST-NST2(1-184) (UniProt Q9M274).
T3 sequence: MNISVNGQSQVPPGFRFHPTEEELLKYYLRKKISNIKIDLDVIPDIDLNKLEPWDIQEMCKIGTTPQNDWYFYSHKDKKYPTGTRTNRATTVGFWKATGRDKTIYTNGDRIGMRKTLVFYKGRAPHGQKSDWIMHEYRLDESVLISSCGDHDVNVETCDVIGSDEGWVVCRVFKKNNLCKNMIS

The next test has as its target T4, GST-NTL8 NAC domain (UniProt Q9XIN7).
T4 sequence: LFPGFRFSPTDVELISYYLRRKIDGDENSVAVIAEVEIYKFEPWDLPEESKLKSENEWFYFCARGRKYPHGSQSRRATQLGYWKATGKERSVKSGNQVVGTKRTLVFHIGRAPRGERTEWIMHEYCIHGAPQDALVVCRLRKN

In a further test the target is T5, GST-SND1(1-203) (UniProt Q9LPI7).
T5 sequence: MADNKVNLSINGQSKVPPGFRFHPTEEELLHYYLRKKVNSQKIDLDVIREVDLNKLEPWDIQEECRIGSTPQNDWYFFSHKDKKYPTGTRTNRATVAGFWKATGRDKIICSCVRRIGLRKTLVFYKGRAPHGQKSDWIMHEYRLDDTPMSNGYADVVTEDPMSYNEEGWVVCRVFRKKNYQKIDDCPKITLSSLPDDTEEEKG

Test [2] concerns the target T6, GST-VOZ2 (Arabidopsis thaliana) (UniProt Q9SLB9).
T6 sequence: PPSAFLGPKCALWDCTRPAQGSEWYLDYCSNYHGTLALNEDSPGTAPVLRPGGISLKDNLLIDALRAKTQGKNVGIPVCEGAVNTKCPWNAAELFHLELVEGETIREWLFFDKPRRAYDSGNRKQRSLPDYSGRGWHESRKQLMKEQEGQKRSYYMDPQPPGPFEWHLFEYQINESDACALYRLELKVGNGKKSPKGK

In another test the target is T7, GST-ANAC019 NAC domain (UniProt Q9C932).
T7 sequence: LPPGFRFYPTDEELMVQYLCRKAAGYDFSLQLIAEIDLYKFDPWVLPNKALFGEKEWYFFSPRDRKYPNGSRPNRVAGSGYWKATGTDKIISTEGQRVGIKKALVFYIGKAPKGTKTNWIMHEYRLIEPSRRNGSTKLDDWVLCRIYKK

The next test addresses T8, GST-ATAF1 NAC domain (UniProt Q39013).
T8 sequence: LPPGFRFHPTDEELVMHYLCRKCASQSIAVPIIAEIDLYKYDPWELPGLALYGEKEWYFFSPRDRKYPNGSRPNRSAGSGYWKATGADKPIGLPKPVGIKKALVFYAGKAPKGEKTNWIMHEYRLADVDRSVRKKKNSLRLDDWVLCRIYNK

Another test has as its target T9, GST-NAP(1-166) (UniProt O49255).
T9 sequence: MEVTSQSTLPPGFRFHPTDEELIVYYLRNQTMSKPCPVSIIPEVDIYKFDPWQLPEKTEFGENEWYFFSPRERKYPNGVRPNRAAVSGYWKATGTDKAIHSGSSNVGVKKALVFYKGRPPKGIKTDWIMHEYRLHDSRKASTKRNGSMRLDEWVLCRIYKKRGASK

A further test addresses T10, GST-VND3 NAC domain (UniProt Q9FH59).
T10 sequence: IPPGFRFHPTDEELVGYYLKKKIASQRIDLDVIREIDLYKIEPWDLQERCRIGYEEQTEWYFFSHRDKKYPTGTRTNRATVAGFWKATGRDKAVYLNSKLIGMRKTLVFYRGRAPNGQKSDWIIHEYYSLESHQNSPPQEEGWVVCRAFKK

The target in another test is T11, GST-VND7 NAC domain (UniProt Q9C8W9).
T11 sequence: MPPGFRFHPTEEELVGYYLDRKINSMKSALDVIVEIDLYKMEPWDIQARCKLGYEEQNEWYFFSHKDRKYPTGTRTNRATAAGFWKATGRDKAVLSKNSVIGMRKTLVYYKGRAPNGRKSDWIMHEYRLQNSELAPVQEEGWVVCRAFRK

For a further test, the target named is GST-WRKY1(266-371) (UniProt Q9SI37).
Sequence of UniProt Q9SI37 (Q9SI37 266-371): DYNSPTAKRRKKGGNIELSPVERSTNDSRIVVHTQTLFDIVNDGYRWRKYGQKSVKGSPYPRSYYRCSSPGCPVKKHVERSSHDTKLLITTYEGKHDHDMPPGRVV
The next test has as its target T12, GST-ANAC055(1-171) (UniProt Q9LDY8).
T12 sequence: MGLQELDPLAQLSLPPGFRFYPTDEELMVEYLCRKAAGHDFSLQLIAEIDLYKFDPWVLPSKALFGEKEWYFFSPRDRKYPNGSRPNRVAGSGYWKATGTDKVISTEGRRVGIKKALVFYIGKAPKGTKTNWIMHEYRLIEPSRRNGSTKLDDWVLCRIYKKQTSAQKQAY

Turning to AAAGTCGT, the binding signal with GST-ANAC092(1-176) is -0.00168 E-score; with GST-NTL6(1-168), 0.0143 E-score; in [1], -0.0387 E-score; with GST-NST2(1-184), 0.13 E-score; with GST-NTL8 NAC domain, -0.0847 E-score; with GST-SND1(1-203), -0.026 E-score. In [2], this sequence gave a binding signal of -0.00954 E-score.

For TGGAGTAA, the binding signal with GST-ANAC092(1-176) was 0.319 E-score; in the test with GST-NTL6(1-168), 0.105 E-score; in the test with GST-ANAC019 NAC domain, 0.0261 E-score; in the test with GST-ATAF1 NAC domain it was 0.11 E-score; with GST-NAP(1-166), -0.0165 E-score; with GST-NST2(1-184), 0.317 E-score. The binding signal was -0.0934 E-score with GST-NTL8 NAC domain; 0.0609 E-score in the test with GST-VND3 NAC domain; 0.131 E-score with GST-VND7 NAC domain; 0.0418 E-score in [2]; -0.0428 E-score with GST-WRKY1(266-371).

GACGTAAC: the binding signal with GST-ANAC019 NAC domain is 0.355 E-score; with GST-NST2(1-184) it was 0.24 E-score; with GST-SND1(1-203) it was 0.392 E-score; in [2], -0.00929 E-score.

ACACGCAA: the binding signal in the test with GST-ATAF1 NAC domain turned out to be 0.439 E-score; in [1], 0.498 E-score; with GST-NAP(1-166) it was 0.487 E-score; with GST-SND1(1-203), 0.477 E-score; in [2], 0.215 E-score.

In the case of GTCAATCA, the binding signal in the test with GST-ANAC092(1-176) was 0.00213 E-score; in the test with GST-NTL6(1-168), -0.00805 E-score; with GST-ANAC019 NAC domain, 0.0668 E-score; in the test with GST-ATAF1 NAC domain, 0.048 E-score; with GST-NAP(1-166) it was -0.136 E-score; with GST-SND1(1-203), 0.0451 E-score. The same sequence returned a binding signal in [2] of 0.16 E-score.

On to ACGCGATC, for which the binding signal with GST-ANAC092(1-176) is 0.314 E-score; with GST-NTL6(1-168) it was -0.142 E-score; in the test with GST-ANAC019 NAC domain, -0.0822 E-score; in the test with GST-ANAC055(1-171), -0.00687 E-score; in the test with GST-ATAF1 NAC domain it was 0.0248 E-score; in [1], 0.402 E-score. Also, the binding signal with GST-NTL8 NAC domain was -0.0727 E-score; in the test with GST-VND3 NAC domain it was -0.018 E-score; with GST-VND7 NAC domain, -0.0254 E-score; in test [2], 0.0286 E-score; with GST-WRKY1(266-371) it was -0.0321 E-score.

Regarding AAAGGTAA, the binding signal in the test with GST-ANAC092(1-176) was 0.0477 E-score; with GST-NTL6(1-168) it was 0.262 E-score; in the test with GST-ANAC019 NAC domain, -0.0174 E-score; in the test with GST-ATAF1 NAC domain, 0.0117 E-score; in test [1], 0.0772 E-score; with GST-VND3 NAC domain, 0.035 E-score. In addition, the results for the binding signal (in the test with GST-VND7 NAC domain; in test [2]; with GST-WRKY1(266-371)) were -0.0391 E-score, -0.0846 E-score and -0.0475 E-score, respectively.

In the case of AATAGTCA, the binding signal with GST-ANAC092(1-176) was -0.0539 E-score; with GST-NTL6(1-168) it was 0.0108 E-score; in the test with GST-ANAC019 NAC domain it was -0.0594 E-score; with GST-NAP(1-166) it was 0.0269 E-score; in the test with GST-NTL8 NAC domain, -0.0322 E-score; in the test with GST-SND1(1-203), -0.0528 E-score. In addition, in test [2], the binding signal came out at 0.0653 E-score.
